# Assay results taken from PubChem BioAssay AID686971 (National Center for Advancing Translational Sciences (NCATS), 2013).
# In all, about 360,000 compounds went through this assay and about 7,500 (2.1%) were called active. Inconclusive results, whose numbers are uncertain, are shown with a selection of clear calls. Calls come from the whole dose curve; as a rule, active = well fitted cell-killing curve with a large enough effect; inconclusive = small, poorly fitted or top-dose-only effect, or effect the other way, or another doubt; inactive = no such curve, though single readings can be large or run the other way. No potency is given beside an inconclusive call; the fits are too rough.
# Assay: qHTS for induction of synthetic lethality in tumor cells producing 2HG: qHTS for the HT-1080-IDH1KD cell line;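 for activity, negative = toxicity: 0% = DMSO wells and -100% = cell-free medium wells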
# Conditions: HT-1080 IDH1 knockdown viability, ATP luminescence, 48 h; activity, negative = toxicity: at 46.1 µM (top of the series) unless noted
# How it was run: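 % activity derives from luminescence (CellTiter-Glo), normalised to DMSO and no-cell wells. HT-1080-IDH1KD cells, 750/well, had 48 h compound exposure at 37 °C.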
# Potency is the fitted concentration of half-maximal effect; tags give direction and shape of the fitted curve.
Compound,Potency,"activity, negative = toxicity"
CCOC(=O)c1ccc2nc(NC(=O)c3cccs3)sc2c1,"inconclusive [cytotoxic, single point]",
O=C(c1ccc(F)cc1)N1CCCC(C(=O)N2CCN(c3ccccc3)CC2)C1 (stereo not given),,inactive: 11.9%
O=C(CSc1nnc(-c2ccccc2O)o1)Oc1ccc(OCc2ccccc2)cc1,"inconclusive [cytotoxic, single point]",
O=C(c1ccccc1Nc1ccc(SC(F)F)cc1)N1CCCCCC1,,inactive: -18.2%
Cc1cccc(Nc2nc(-c3ccncc3)cs2)c1,"inconclusive [cytotoxic, single point]",
CCCCCCC#Cc1cncc(C(=O)NNC(=O)Nc2cc(Cl)cc(Cl)c2)c1,active: 20.6 µM,
O=C(c1[nH]c(C(F)(F)F)nc1-c1ccccc1)N1CCN(c2ncccn2)CC1,"inconclusive [cytotoxic, single point]",
Oc1ccccc1C1SC(c2ccccc2O)SC(c2ccccc2O)S1 (stereo not given),"inconclusive [cytotoxic, single point]",
CCOC(=O)C(=Cc1cc(=O)c(OC)co1)C(=O)OCC,active: 18.4 µM,
CN(C(=S)NC(=O)CCCOc1ccc(Cl)cc1Cl)c1ccccc1,"inconclusive [cytotoxic, single point]",
CC(C)(C)C(=O)Nc1cc(S(=O)(=O)Nc2ccc(Cl)cc2)ccc1Cl,,inactive: -14.7%
O=C(/C=C/c1ccc(Cl)cc1Cl)Nc1cccc(S(=O)(=O)NC2=NCCCCC2)c1,,inconclusive: -33.4% [cytotoxic]
Cc1cccnc1C(NC(=O)C1CCN(Cc2ccc(Oc3ccccc3)cc2)CC1)c1ccc(F)cc1 (stereo not given),"inconclusive [cytotoxic, single point]",
Cc1[nH]c2ccccc2c1/C=N/NC(=O)C1CC1(c1ccccc1)c1ccccc1 (stereo not given),"inconclusive [cytotoxic, single point]",
CNC(=O)C[C@H]1C(=O)N(Cc2ccccc2)C[C@@H]1CSC,,inactive: 4.17%
COc1cc(Cl)ccc1OCc1cc(C(=O)N2CCN(C3CCCCC3)CC2)no1,,inactive: 0.563%
COc1ccc(C(=O)NC(=S)NNC(=O)c2ccccc2C)cc1,"inconclusive [cytotoxic, full curve, poor fit]",
CCOC(=O)c1[nH]c(C)c(C(=O)Nc2ccc(C)c(F)c2)c1C,active: 3.55 µM,
CN1CCN(c2ccc(Cl)cc2NS(=O)(=O)c2ccccc2Cl)CC1,"inconclusive [cytotoxic, single point]",
COc1ccc(S(=O)(=O)N2CCC(C(=O)N[C@H](C(=O)N3CCCC3)C(C)C)CC2)cc1,"inconclusive [rising, single point]",
